Laboratory results: article PMC7819943, “Rice protein-binding microarrays: a tool to detect cis-acting elements near promoter regions in rice”
The other results are listed elsewhere or left out.

These sequences were tested against T1, OsWOX13 (Oryza sativa, UniProt Q5QMM3 1-267) (assay: protein-binding microarray (RPBM); PBS, 2% BSA, 51.3 ng/ul salmon testes DNA, 50 uM zinc acetate, 200 nM TF, 25 C, 1 h; high values mean tight binding). Settings: protein: recombinant; tags: N-terminal polyhistidine and DsRed monomer fusion (pET32a); label: CyDye5-dUTP incorporated in the synthesized complementary strand; 3' TTTTT single-stranded linker to array surface; dsDNA, one strand shown.
T1 sequence: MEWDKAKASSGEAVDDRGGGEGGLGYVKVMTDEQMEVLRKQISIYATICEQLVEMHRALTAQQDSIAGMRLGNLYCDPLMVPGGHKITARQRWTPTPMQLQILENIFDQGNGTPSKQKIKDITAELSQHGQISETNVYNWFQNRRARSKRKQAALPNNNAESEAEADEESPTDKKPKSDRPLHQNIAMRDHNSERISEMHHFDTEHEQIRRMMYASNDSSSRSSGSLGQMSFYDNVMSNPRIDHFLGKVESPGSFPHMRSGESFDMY
Outline: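 Transcription factors were each fused at the N-terminus to a polyhistidine tag plus DsRed and expressed in E. coli BL21-CodonPlus before Ni–NTA purification. Binding to a double-stranded custom Agilent array was carried out with 200 nM protein at 25 °C for 1 h in PBS, 2% BSA, salmon testes DNA and 50 µM zinc acetate. The binding signal is per-feature fluorescence intensity, in arbitrary units, on an Axon 4000B scanner.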

Sequence	binding signal
CTCATCATTATCAATTCAATTATCGGAATGAAAGGAGCTTCGGAGTCACCTAGTGCAG	15500 fluorescence intensity (a.u.)
AGCCAATTTACATGTGAGACATGTTTCGATTTATGCTGGCCGGAGTCACCTAGTGCAG	5620 fluorescence intensity (a.u.)
TGTAATTATATCATTTCAATTTTAAAGTATTAGAGATATGCGGAGTCACCTAGTGCAG	22800 fluorescence intensity (a.u.)
AATAAACAAGTAAATCATCCATCATCGTTCACCCGCATTTCGGAGTCACCTAGTGCAG	7140 fluorescence intensity (a.u.)
TCTAATTTATTTACGTATATATTATGATATATATAATCTACGGAGTCACCTAGTGCAG	4090 fluorescence intensity (a.u.)
TCCTCGCTGTTAACCACATTAATTGTCTAGCTACTCTTGACGGAGTCACCTAGTGCAG	22100 fluorescence intensity (a.u.)
TCATTCGTCTAAATTAATTAGTGTTATTCAACGCAACATCCGGAGTCACCTAGTGCAG	16400 fluorescence intensity (a.u.)
ACCAATTTGATCATTAACTTTTATACCAACATGACCACATCGGAGTCACCTAGTGCAG	10200 fluorescence intensity (a.u.)
ATAATAATTGCTAGTGGGTGATGATGTGGTATACTTGCATCGGAGTCACCTAGTGCAG	30900 fluorescence intensity (a.u.)
AACTAATGATATCCTGTAATCTAGACACCACGTCTAAATTCGGAGTCACCTAGTGCAG	5370 fluorescence intensity (a.u.)
TGTTAACGAATCTAGATAGACAGGATAATCCTAGAAAGTTCGGAGTCACCTAGTGCAG	5250 fluorescence intensity (a.u.)
AGGTTTAATTTCAATTAATCATAAAACTTGGACATTTACACGGAGTCACCTAGTGCAG	30700 fluorescence intensity (a.u.)
CAGGATCCAGTGTGATTGAGGTGAATGGGAAGACCTGTGACGGAGTCACCTAGTGCAG	10800 fluorescence intensity (a.u.)
AAGAAATGATTTCATAATATATACTACACTATGATTTCATCGGAGTCACCTAGTGCAG	9870 fluorescence intensity (a.u.)
ATTCCGCCCGTCAATCCTGTGCCTCTTCCCTCAATATATACGGAGTCACCTAGTGCAG	6620 fluorescence intensity (a.u.)
ACAAATTCTGAAGCCTGATTAGCGTATCCGCTGATACATTCGGAGTCACCTAGTGCAG	11300 fluorescence intensity (a.u.)
AAAGTCTCAATCATAAGACCATAGTAAGGACTGCGGCCCACGGAGTCACCTAGTGCAG	4560 fluorescence intensity (a.u.)
AAACAATTAAGTCTTTATATATATATAAGTAGTGGCACTTCGGAGTCACCTAGTGCAG	5190 fluorescence intensity (a.u.)
AAGCCTTAATTAGCAAAGCATCATCCATACGTAGTTACCGCGGAGTCACCTAGTGCAG	27900 fluorescence intensity (a.u.)
TAGATTTAATGGAACTAATTTAGTATTTTAGATGTTCTTACGGAGTCACCTAGTGCAG	9840 fluorescence intensity (a.u.)
GGATTTTACAAAATTTGTAATTTAATTCTGTACACTTGACCGGAGTCACCTAGTGCAG	8790 fluorescence intensity (a.u.)

Sequence	binding signal
TCTAATAAGATAACTCTGATTAGTGCGGCTGGTAGCAGAGCGGAGTCACCTAGTGCAG	16100 fluorescence intensity (a.u.)
TGTGACATTTCCAATCACTAATTGATCAATTGCACAACAACGGAGTCACCTAGTGCAG	38100 fluorescence intensity (a.u.)
TATATATATATATATATATATATATATATATACACACACACGGAGTCACCTAGTGCAG	17200 fluorescence intensity (a.u.)
TTCTCAATTATTTTCTAATCCTTATTGCTTAGCTTACTAACGGAGTCACCTAGTGCAG	8360 fluorescence intensity (a.u.)
ACTGATGAGTTTAGCTGCCGCTTGGATATGCATCGTGTTGCGGAGTCACCTAGTGCAG	5780 fluorescence intensity (a.u.)
ATAATTATTTAAATTATATGCATACACCTAGGTGCCATGGCGGAGTCACCTAGTGCAG	38800 fluorescence intensity (a.u.)
TCCTCACATGATGTACAGTCACACACACTCCTCCTCTCTCCGGAGTCACCTAGTGCAG	4050 fluorescence intensity (a.u.)
AAAATGAGTCCATTAATTAATTAATTAATTAAGGACCGCTCGGAGTCACCTAGTGCAG	41100 fluorescence intensity (a.u.)
AATCATGAACTAATTAGGCTCAAAAGATTTGTCTCACGATCGGAGTCACCTAGTGCAG	6090 fluorescence intensity (a.u.)
AAATGTAGATTAATTGCTCTGGTCTTTGGTCTTGTTGCAACGGAGTCACCTAGTGCAG	20300 fluorescence intensity (a.u.)
CTGATTGTGTTGTGTAACAAAACTATCTTTATTCTAATGTCGGAGTCACCTAGTGCAG	11900 fluorescence intensity (a.u.)
TAATTAATCATGCGCTAATGGAGCACTCCGTTTTCCGTGCCGGAGTCACCTAGTGCAG	17400 fluorescence intensity (a.u.)
GCGCACTAATTATCTCTTTCCCCTCTGATGGTTGAGGAACCGGAGTCACCTAGTGCAG	22000 fluorescence intensity (a.u.)
GTGACATGATTACAATTAGAAGCAAGAAAAGGCGCTAATGCGGAGTCACCTAGTGCAG	35200 fluorescence intensity (a.u.)
TGGTAATTGCTGATTATTCCTACAAATGCCGTGATGATTTCGGAGTCACCTAGTGCAG	26700 fluorescence intensity (a.u.)
AAAATGTGATGACTGATCAACCGGGGTCACCGTCTTCACTCGGAGTCACCTAGTGCAG	10100 fluorescence intensity (a.u.)
ATCGTAAGCCATGACTAATTAGCTCAAATTAAAATTCAAACGGAGTCACCTAGTGCAG	4210 fluorescence intensity (a.u.)
GCTAATCATAGACTAATTAGGCTTAAAAGATTTGTCTCGCCGGAGTCACCTAGTGCAG	37200 fluorescence intensity (a.u.)
TCCACCTAATTAATCCACGGTCATGACTAGGTCATCATCACGGAGTCACCTAGTGCAG	12900 fluorescence intensity (a.u.)
TTAGATTGGTCGCTTGCGGACGGGGAAGGAGCAGAACACTCGGAGTCACCTAGTGCAG	14300 fluorescence intensity (a.u.)
ATGCAGATTAGCGTGCGATTAGCGAGGCCACGTGGCGCTGCGGAGTCACCTAGTGCAG	6260 fluorescence intensity (a.u.)

Sequence	binding signal
CATAAAACCGATCAATTAGGTATCAGGTCACAATTAACCACGGAGTCACCTAGTGCAG	3160 fluorescence intensity (a.u.)
AATAATCACTAATTTCCCTATCACACGGGTCTCGCTATCGCGGAGTCACCTAGTGCAG	18900 fluorescence intensity (a.u.)
CACAATTTGGTCAATCTGTTGTTCGAGCAGATTACCTTATCGGAGTCACCTAGTGCAG	6470 fluorescence intensity (a.u.)
CTATTATGTCAATTATTTCTAGTGCCTAGTGCCTAGTTGTCGGAGTCACCTAGTGCAG	17700 fluorescence intensity (a.u.)
AATTGCTTCTTCAGGTGAATCAAGTCGACTTGATTGGCACCGGAGTCACCTAGTGCAG	8400 fluorescence intensity (a.u.)
GTGATAATTGAGTATGCTACGCGTCTGACGTACTACGAGTCGGAGTCACCTAGTGCAG	19900 fluorescence intensity (a.u.)
CCTCCAATCTCGTCACCAACCAAACCACCTCGCCGCAGATCGGAGTCACCTAGTGCAG	3810 fluorescence intensity (a.u.)
GATGATTTTCTCGTATCGATCTCTCCAACCCACCCGCCCGCGGAGTCACCTAGTGCAG	14000 fluorescence intensity (a.u.)
ACGTTTAATTACGGGAAACCGGCTAAAACCCACCACACATCGGAGTCACCTAGTGCAG	6640 fluorescence intensity (a.u.)
TACATGATTAGCCTATGTGATGCTACAGTAAACATTCTCTCGGAGTCACCTAGTGCAG	29700 fluorescence intensity (a.u.)
GGTTAGATTAGAGTTAGGCTCGCCATTAAACAACACTCATCGGAGTCACCTAGTGCAG	6220 fluorescence intensity (a.u.)
TAAAGTAATTGAATGATACCTTTAAAGTTTCCTCTTGAGGCGGAGTCACCTAGTGCAG	45400 fluorescence intensity (a.u.)
CTTAACTGGTGCGCATACTTCACAATACAAGTAGGCCCAACGGAGTCACCTAGTGCAG	9870 fluorescence intensity (a.u.)
ATCCATGAGACTGCCAAATTGTTAACATCCTATTTGCGCACGGAGTCACCTAGTGCAG	3180 fluorescence intensity (a.u.)
TTGATGACTGGCTCATAATGTTCTGAAATCCTTTCTACAGCGGAGTCACCTAGTGCAG	19100 fluorescence intensity (a.u.)
TATAATTGACGCTATTGTTGAGGGAGGACAGTTGGACTTTCGGAGTCACCTAGTGCAG	45800 fluorescence intensity (a.u.)
CTATTGACCGGTTAATTAGGAGGAACAGTAAGACCAAACTCGGAGTCACCTAGTGCAG	6900 fluorescence intensity (a.u.)
TTCCAATTGATAGACAGGTAATATAATGCCATCTATTCCACGGAGTCACCTAGTGCAG	44200 fluorescence intensity (a.u.)
CCTCTCTTGATTGTGTTGTGCAGTTTGTTTGTGTAGTGGACGGAGTCACCTAGTGCAG	16500 fluorescence intensity (a.u.)
ATCATATATGATCTGTTAAATTTTACTTTAACTTTAGAACCGGAGTCACCTAGTGCAG	3410 fluorescence intensity (a.u.)
TTTACACATCATTCTCAAATCACGGATCAAATCAACAAACCGGAGTCACCTAGTGCAG	4680 fluorescence intensity (a.u.)

Sequence	binding signal
ATTGATAATTAGTTCACCGAAGTAGTAGGGCGCGACACGCCGGAGTCACCTAGTGCAG	15900 fluorescence intensity (a.u.)
CGTAAATTTCACTCGCTGTTGCCCTATCCTTAGCCGTTGACGGAGTCACCTAGTGCAG	8320 fluorescence intensity (a.u.)
TACTCTGATTTTGTCCATTACCAGCTGCAAATGGACCAGCCGGAGTCACCTAGTGCAG	19300 fluorescence intensity (a.u.)
CTGACTGGTGACTGGTGGTGGGTGAGAACATCGCTTGGTCCGGAGTCACCTAGTGCAG	18800 fluorescence intensity (a.u.)
TGCATGGCTCAAAATTAAATTGCAATTCCAAATTGACAGTCGGAGTCACCTAGTGCAG	4880 fluorescence intensity (a.u.)
GAATTGATTGAGGTTGAAGGCTTCAAGCGATATACGTACTCGGAGTCACCTAGTGCAG	44800 fluorescence intensity (a.u.)
CTGACATAACTATCTGTTGGCTAATGGCTACAGTAAAGTTCGGAGTCACCTAGTGCAG	3150 fluorescence intensity (a.u.)
TTTAATCACAAGCAAATCAATTAACTCATCCATACTCATCCGGAGTCACCTAGTGCAG	24200 fluorescence intensity (a.u.)
CGATAATTGTCACTGATTCAAAGTAAATATGTGTTCAGAACGGAGTCACCTAGTGCAG	36400 fluorescence intensity (a.u.)
TGCTGATAGATCCAGTAGGTGTGTGCCAGCCACCAAGCAACGGAGTCACCTAGTGCAG	7200 fluorescence intensity (a.u.)
TGTTTTATTTGATTGGGAGACATGGGAATTTTGGTGGGATCGGAGTCACCTAGTGCAG	32000 fluorescence intensity (a.u.)
AATTAATCATGTTGACAGCCGCAACGCTAGCTTGCCATAGCGGAGTCACCTAGTGCAG	8890 fluorescence intensity (a.u.)
ATTAACTTTCAAATTAAGGTTTAAAATTCAAGTTTTGGTTCGGAGTCACCTAGTGCAG	7720 fluorescence intensity (a.u.)
TTTTCTATCACATCAAAATTTTCCTAGGCTGTGTTTAGTTCGGAGTCACCTAGTGCAG	6960 fluorescence intensity (a.u.)
TATATATATATATATATATATATATATATACTATATAAAGCGGAGTCACCTAGTGCAG	13200 fluorescence intensity (a.u.)
AATATAAATGCAATTGTGATTTTCTGTGTTCAACATTTGACGGAGTCACCTAGTGCAG	8020 fluorescence intensity (a.u.)
TCTGACCGAAATCTTTGGAGATAATTATGTATTGCAATTTCGGAGTCACCTAGTGCAG	10400 fluorescence intensity (a.u.)
CTGCAATCACCAATTTTAAGTTTAATTTGAGATACAGTACCGGAGTCACCTAGTGCAG	21100 fluorescence intensity (a.u.)
TATCAGGTAATTATTTACGCAAATTTGTGTATAATTGTGTCGGAGTCACCTAGTGCAG	13600 fluorescence intensity (a.u.)
TTGCTCAGTTAATTATGGAGGCTAGCGTCTGAAGCGTTCACGGAGTCACCTAGTGCAG	3710 fluorescence intensity (a.u.)
AACAATTGTTAACTGCGAAATTCTAAAACTGCTACTCCTACGGAGTCACCTAGTGCAG	5740 fluorescence intensity (a.u.)
